Laboratory results taken from PMC4336329 (PLoS ONE, 2015).
Among all 310,000 compounds or so, about 14,000 (4.5%) showed an effect of 50% or more. Effects have a minus sign here. The list shows a part of the results.

target: human ether-à-go-go-related gene (hERG) potassium channel (human, UniProt Q12809); experiment: primary screen, population patch clamp on CHO cells stably expressing hERG
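Further: peak tail current of the secondary pulse compared with the same well before compound.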

Sequence of human ether-à-go-go-related gene (hERG) potassium channel (Q12809 whole entry, looked up): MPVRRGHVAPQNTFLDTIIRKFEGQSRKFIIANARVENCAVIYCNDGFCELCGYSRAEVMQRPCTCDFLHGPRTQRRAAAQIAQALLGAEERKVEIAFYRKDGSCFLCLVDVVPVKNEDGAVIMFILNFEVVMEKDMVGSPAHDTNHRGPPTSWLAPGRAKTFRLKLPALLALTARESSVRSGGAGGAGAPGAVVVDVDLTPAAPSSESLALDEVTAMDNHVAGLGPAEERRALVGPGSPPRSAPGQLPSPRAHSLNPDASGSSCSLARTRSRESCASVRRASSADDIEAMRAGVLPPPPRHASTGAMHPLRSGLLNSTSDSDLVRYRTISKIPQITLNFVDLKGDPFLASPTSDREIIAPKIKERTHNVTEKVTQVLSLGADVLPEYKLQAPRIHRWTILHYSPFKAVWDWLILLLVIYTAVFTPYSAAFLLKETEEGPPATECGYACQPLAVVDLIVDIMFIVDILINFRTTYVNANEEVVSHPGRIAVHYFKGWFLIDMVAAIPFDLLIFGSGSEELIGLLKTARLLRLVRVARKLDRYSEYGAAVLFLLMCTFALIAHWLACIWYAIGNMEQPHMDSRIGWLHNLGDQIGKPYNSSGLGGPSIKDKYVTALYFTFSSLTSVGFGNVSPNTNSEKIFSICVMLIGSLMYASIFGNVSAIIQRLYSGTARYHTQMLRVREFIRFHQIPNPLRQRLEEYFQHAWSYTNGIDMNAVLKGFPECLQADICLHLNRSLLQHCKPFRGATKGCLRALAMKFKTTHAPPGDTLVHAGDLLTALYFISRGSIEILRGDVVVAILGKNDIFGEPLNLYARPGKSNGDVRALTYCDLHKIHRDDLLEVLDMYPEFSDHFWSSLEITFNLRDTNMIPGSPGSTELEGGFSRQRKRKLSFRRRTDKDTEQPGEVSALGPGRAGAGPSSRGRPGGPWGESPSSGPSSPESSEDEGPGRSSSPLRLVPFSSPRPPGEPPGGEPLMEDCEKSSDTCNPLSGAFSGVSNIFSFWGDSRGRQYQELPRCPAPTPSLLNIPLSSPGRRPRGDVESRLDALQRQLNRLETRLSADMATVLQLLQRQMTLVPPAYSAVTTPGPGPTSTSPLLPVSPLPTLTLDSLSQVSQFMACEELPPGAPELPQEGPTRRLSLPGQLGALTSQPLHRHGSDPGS

Structure (SMILES) | hERG current change (%, negative = inhibition) at 10uM [%]
COc1cc(SC)ccc1C(=O)Nc1ccc2c(c1)CCN2S(C)(=O)=O | 9.93
Nc1nc(SCC(=O)Nc2ccc(Br)cc2F)n[nH]1 | 4.75
NC(=O)c1c(NC(=O)CSc2nnc(-c3ccco3)n2-c2ccccc2)sc2c1CCC2 | -21.8
Cc1cc(/C=N/NC(=O)C(O)(c2ccccc2)c2ccccc2)c(C)n1-c1cccc(C(=O)O)c1 | 9.91
O=C(Nc1ccc(S(=O)(=O)N2CCOCC2)cc1)c1ccco1 | -20.3
Fc1ccc(-c2n[nH]c(=S)n2/N=C/c2c[nH]c3ccccc23)cc1 | -8.26
CCOc1ccc(NC(=O)CCCNC(=O)Cn2cnc3sc(C)c(C)c3c2=O)cc1 | 14.9
CCOC(=O)Cc1csc(NC(=O)c2cccc([N+](=O)[O-])c2)n1 | -29.7
COc1cccc(/C=N/N2C(=O)NC3(CCCCC3)C2=O)c1O | -7.53
COc1cccc(CNCc2ccc(OC)c3ccccc23)c1OC.O=C(O)C(=O)O | -28.9
CC(C)c1ccc(N2C=Nc3ccc(C(C)C)cc3C2)cc1 | -9.45
Cc1onc(-c2ccccc2)c1-c1nnc(CN2CCN(S(=O)(=O)c3ccccc3F)CC2)o1 | -28.4
CCC(C)(C)C1CCc2[nH]nc(C(=O)NCc3ccc(OC)cc3)c2C1 (centres unmarked) | -0.24
O=C(CCc1ccc(S(=O)(=O)N2CCOCC2)cc1)N/N=C/c1ccc(F)cc1F | -13.7
CC12CC3(C)CC(C)(C1)CC(C(=O)NC(=S)NC(C)(C)C)(C2)C3 | 13.3
CCCSc1nnc(NC(=O)Nc2ccccc2OC)s1 | 16.6
COc1ccc(S(=O)(=O)N2CCOCC2)cc1NC(=O)CSc1nnc2c(n1)[nH]c1ccccc12 | -11.5
CC1=C(C(=O)N2CCCC(CCC(=O)NCc3ccc(F)c(F)c3)C2)OCCO1 (centres unmarked) | 3.36
CCCNC(=O)c1ccccc1NS(=O)(=O)c1ccc(OC)c(OC)c1 | 1.92

Structure (SMILES) | hERG current change (%, negative = inhibition) at 10uM [%]
Oc1ccccc1-c1nc(NCC2CCCO2)c2ccccc2n1 (centres unmarked) | 19
O=C1c2ccccc2C(=O)N1c1cccc2ccccc12 | -3.28
CC(=O)N1c2ccc(S(=O)(=O)N3CCCC(C(=O)Nc4ccc(C)cc4C)C3)cc2CC1C (centres unmarked) | 5.35
COc1cccc(-c2nnc(NC(C)=O)o2)c1 | 4.78
Cc1cc(C)c[n+](CC(=O)c2ccc(C)c([N+](=O)[O-])c2)c1.[Br-] | -13.2
Cc1c(O)c2ccccc2oc1=O | -0.676
Cc1ccc(S(=O)(=O)NCC(=O)NC2CCCCCC2)cc1 | -10.8
CCOC(=O)C(NC(C)=O)(N1CCOCC1)C(F)(F)F (centres unmarked) | 15.3
CN(C)c1ccc(C(O)P(=O)(OCc2ccccc2)c2ccc(N(C)C)cc2)cc1 (centres unmarked) | 15
O=C(Nc1ccccc1C(=O)N1CCCC1)c1ccc(Cl)c([N+](=O)[O-])c1 | 3.66
O=C(Cc1ccc([N+](=O)[O-])cc1)Nc1cccc(C(F)(F)F)c1 | -29.3
O=C(COC(=O)Cc1cccs1)Nc1ccc(OC(F)(F)F)cc1 | 3.97
Cc1ccccc1-n1c(SCC(=O)Nc2c(C)cccc2C)nc(O)cc1=O | 11.7
CCOc1ccc2nc(SCC(=O)NCc3ccc(S(N)(=O)=O)cc3)sc2c1 | 1.18
CC(=O)NCCC(=O)Nc1nc(-c2ccccc2Cl)cs1 | -9.76
C=CCOC(=O)C1=C(C)NC(C)=C(C(=O)OCC=C)C1c1cn(-c2ccccc2)nc1-c1ccco1 | -1.68
Cl.O=C(Cc1ccccc1)NC1CCN(Cc2ccccc2)CC1 | 1.21
CCCCn1c(SCC(N)=O)nnc1-c1ccco1 | 15.3
CCOC(=O)c1ccccc1NC(=O)CN(c1ccccc1C)S(C)(=O)=O | -4.92

Structure (SMILES) | hERG current change (%, negative = inhibition) at 10uM [%]
CCOC(=O)c1c(C)[nH]c(C(=O)COC(=O)C2(C)CC2(Cl)Cl)c1C (centres unmarked) | -6.89
Cc1ccc(C)n1-c1cccc(NC(=O)c2ccccc2)c1 | -10.4
CCCn1c(N2CCN(Cc3ccc(Cl)cc3)CC2)nc2ccccc21.Cl | -69.8
CC(=O)N1CCC(N(C(=O)Nc2c(F)cccc2F)C(C)C)CC1 | 13.8
CC(C)C[C@H]1COCCS(=O)(=O)N1Cc1cccc(Cl)c1 | -24
CCOc1cc2c(cc1OCC)-n1cccc1C(c1ccc(OC(F)F)cc1)NC2.Cl (centres unmarked) | -65.3
Cc1ccc(CSc2ccc(-c3cccs3)nn2)cc1 | -0.175
CSCCC(NC(=O)c1ccco1)C(=O)NCC(c1ccco1)N1CCCCC1 (centres unmarked) | -11.3
CCNC(=S)Nc1cccc(S(=O)(=O)NC2=NCCC2)c1 | 25.9
Cc1c(C(=O)N2CCCC2)c(S(=O)(=O)Nc2cccc(Br)c2)c(C)n1C | 6.99
CCOC(=O)c1cccc(NC(=O)CCn2cccc2)c1 | -27.7
CCOCCCNC(=O)c1c[nH]c2cc(C)ccc2c1=O | -3.42
Nc1ncnc2nc(SCC(=O)N3CCN(c4ccccc4)CC3)[nH]c12 | -6.47
CCNC(=O)NC(=O)COC(=O)C1CSC2(C)CCC(=O)N12 (centres unmarked) | 3.51
COc1ccccc1/C=C\C=N\NC(=O)CCn1nnc2ccccc21 | -3.44
CC(=O)N[C@@H](C)c1nc2ccccc2n1CCCN1CCN(c2nc(-c3ccc(C)cc3)cs2)CC1 | -56.2
COc1ccc(-n2c(=S)[nH]c3sc4c(c3c2=O)CCN(C)C4)cc1 | 26.5
Cc1cc(C)n2nc(C(=O)Nc3ccn(Cc4ccccc4C)n3)cc2n1 | 12.2
